{
  "source": "PubChem BioAssay AID624417",
  "about": "(National Center for Advancing Translational Sciences (NCATS), 2012)",
  "note": "Out of some 410,000 compounds screened, about 6,400 (1.6%) were called active. The inconclusive results got no clear call from the source; some entries with a clear call stand among them for comparison. Calls come from the whole dose curve; as a rule, active = well fitted inhibition curve with a large enough effect; inconclusive = small, poorly fitted or top-dose-only effect; inactive = no such curve, though single readings can be large or run the other way. Potencies of inconclusive entries are left out as doubtful fits. % is set by controls: 0 for no effect and ±100 for the full control effect; potency is the fitted concentration of half-maximal effect; tags give direction and shape of the fitted curve.",
  "data": [
    {"molecular_target": "Glucagon-like peptide 1 receptor (Homo sapiens) (UniProt P43220)", "sequence (P43220 whole entry, looked up)": "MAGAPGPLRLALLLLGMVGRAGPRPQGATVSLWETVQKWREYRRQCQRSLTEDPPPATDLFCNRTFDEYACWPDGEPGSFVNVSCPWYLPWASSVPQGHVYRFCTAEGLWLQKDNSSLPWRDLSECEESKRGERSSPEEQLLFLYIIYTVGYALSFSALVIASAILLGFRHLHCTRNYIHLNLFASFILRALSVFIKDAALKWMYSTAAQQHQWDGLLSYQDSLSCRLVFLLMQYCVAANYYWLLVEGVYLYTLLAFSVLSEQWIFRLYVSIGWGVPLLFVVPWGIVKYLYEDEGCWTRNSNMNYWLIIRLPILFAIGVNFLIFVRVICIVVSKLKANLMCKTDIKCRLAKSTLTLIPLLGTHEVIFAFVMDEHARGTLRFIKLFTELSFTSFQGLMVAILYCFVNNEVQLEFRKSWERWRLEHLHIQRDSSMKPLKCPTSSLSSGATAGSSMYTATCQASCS", "assay": "qHTS of GLP-1 Receptor Inverse Agonists (Inhibition Mode); note: nearly all actives have a fitted effect of over 55% in size", "details": "HEK293 GLP-1R CRE-luciferase, luminescence, 24 h, GLP-1R form is constitutively active; activity change, negative = inhibition: at 38.3 µM (top of the series) unless noted", "method_in_brief": "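Luminescence readout: a drop in cAMP-driven luciferase signal flags inverse agonism at a constitutively active GLP-1R stably expressed in HEK293. Compound exposure lasted 24 hr at 37 deg C, 5% CO2.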", "values": [
      {"smiles": "COc1ccccc1CC(O)CC1c2c(cc3c(c2OC)OCO3)CCN1C", "note": "(stereo not drawn)", "Potency": "inconclusive [inhibitor, partial curve]"},
      {"smiles": "Cc1ccccc1C(=O)NC(CC(C)C)C(=O)N1CCN(c2ccccc2)CC1", "note": "(stereo not drawn)", "Potency": "inconclusive [inhibitor, single point]"},
      {"smiles": "CCOc1ccc2oc(C(=O)N(C)CC(=O)Nc3ccc(OCC)c(OCC)c3)c(C)c2c1", "Potency": "inconclusive [inhibitor, partial curve, poor fit]"},
      {"smiles": "O=C(O)c1ccccc1SC1CC(=O)N(c2ccc3c(c2)OCO3)C1=O", "note": "(stereo not drawn)", "activity change, negative = inhibition": "inactive: 2.03%"},
      {"smiles": "CC1(C(=O)Nc2ccc3c(c2)OCCO3)CCN1Cc1ccc2ccccc2c1", "note": "(stereo not drawn)", "Potency": "inconclusive [inhibitor, partial curve, poor fit]"},
      {"smiles": "CC(C)C[C@@]12C(=O)N(c3cccc(Cl)c3)C(=O)N1[C@H](c1ccc(Br)cc1)[C@@H]1C(=O)N(C(C)(C)C)C(=O)[C@@H]12", "Potency": "inconclusive [inhibitor, single point]"},
      {"smiles": "CCC(C(=O)NCc1ccccc1Cl)n1c(=O)c2cccn2c2ccccc21", "note": "(stereo not drawn)", "Potency": "inconclusive [inhibitor, partial curve]"},
      {"smiles": "CN(Cc1ccc(OC(F)F)cc1)C(=O)c1cccc(S(=O)(=O)N2CCN(c3ccccc3)CC2)c1", "Potency": "inconclusive [inhibitor, partial curve, poor fit]"},
      {"smiles": "CC1(C)NC(=O)N(CC(O)CN2C(=O)NC(C)(C)C2=O)C1=O", "activity change, negative = inhibition": "inactive: 1.38%"},
      {"smiles": "Cc1ccc(NC(=O)CSc2nccn2Cc2ccco2)c(C)c1", "Potency": "inconclusive [inhibitor, partial curve]"},
      {"smiles": "Clc1cccc(Cl)c1C1Nc2cccc3cccc(c23)N1", "activity change, negative = inhibition": "inactive: 191%"},
      {"smiles": "CCc1ccc2nc(N(Cc3cccnc3)C(=O)Cc3ccccc3)sc2c1", "activity change, negative = inhibition": "inactive: -3.03%"},
      {"smiles": "C=CC[C@@H](Cc1ccc(F)cc1)C(=O)OC[C@@H]1CCCN1C(=O)[C@@H](CC=C)CC(=O)N[C@H](CO)Cc1ccccc1", "Potency": "inconclusive [inhibitor, single point]"},
      {"smiles": "O=C(C#Cc1ccccc1)Nc1ccc(F)cc1", "Potency": "inconclusive [inhibitor, single point]"},
      {"smiles": "CC1CCC2(CC1)NC(=O)N(NC(=O)CCc1c[nH]c3ccccc13)C2=O", "note": "(stereo not drawn)", "Potency": "inconclusive [inhibitor, partial curve, poor fit]"},
      {"smiles": "COc1ccc(-c2sc(C(=O)c3ccc(Cl)cc3Cl)cc2CC(=O)O)cc1", "Potency": "inconclusive [inhibitor, single point]"},
      {"smiles": "CCS(=O)(=O)c1nc(S(=O)(=O)c2ccc(Cl)cc2)c(NCc2ccc(Cl)cc2)s1", "activity change, negative = inhibition": "inactive: 8.57%"},
      {"smiles": "CC(C)c1cc(CN2C(C)COCC2C)cc(C(C)C)c1O", "note": "(stereo not drawn)", "Potency": "inconclusive [inhibitor, single point]"},
      {"smiles": "CCOC(=O)c1[nH]c(C)c(CCC(=O)N2CCN(c3ccc(Cl)cc3)CC2)c1C", "Potency": "inconclusive [inhibitor, partial curve, poor fit]"},
      {"smiles": "NC(c1csc(Nc2ccc(C(=O)c3ccccc3)cc2)n1)c1ccccc1Cl", "note": "(stereo not drawn)", "Potency": "inconclusive [inhibitor, single point]"},
      {"smiles": "O=C(CN1CCc2ccccc21)NCc1ccccc1Cl", "Potency": "inconclusive [inhibitor, single point]"},
      {"smiles": "Cc1cccc(C)c1NC(=O)CNC(=O)Cc1c[nH]c2ccccc12", "activity change, negative = inhibition": "inactive: -20.9%"},
      {"smiles": "Oc1ccc(C(=Nc2ccccc2)c2ccccc2)c(O)c1", "Potency": "inconclusive [inhibitor, partial curve, poor fit]"},
      {"smiles": "Cn1c(=O)c2c(-c3ccccc3)n(-c3cccc(C#N)c3)cc2n(C)c1=O", "activity change, negative = inhibition": "inactive: 10.2%"},
      {"smiles": "COc1cccc(-c2cc(C(=O)Nc3cccnc3)no2)c1", "Potency": "inconclusive [inhibitor, single point]"},
      {"smiles": "Cc1ccc(S(=O)(=O)Nc2ccccc2C(=O)NCC2CCCO2)cc1", "note": "(stereo not drawn)", "activity change, negative = inhibition": "inactive: 14.8%"},
      {"smiles": "CN(C)S(=O)(=O)c1ccc(N2CCCC2)c(C(=O)Nc2cccc(F)c2)c1", "Potency": "inconclusive [inhibitor, partial curve, poor fit]"},
      {"smiles": "CCN1C(=O)c2ccccc2S(=O)(=O)c2ccc(C(=O)NCc3ccc(C)cc3)cc21", "Potency": "inconclusive [inhibitor, single point]"},
      {"smiles": "O=C(Cn1ncc(Cl)c(Cl)c1=O)N1CCN(Cc2ccccc2)CC1", "Potency": "inconclusive [inhibitor, single point]"},
      {"smiles": "CCC1CCCCN1S(=O)(=O)c1ccc(C(=O)Nc2nnc(-c3ccccc3Cl)o2)cc1", "note": "(stereo not drawn)", "Potency": "inconclusive [inhibitor, full curve, poor fit]"},
      {"smiles": "COC(=O)C1=C(C)N(Cc2ccccc2)C(=S)N[C@H]1c1cccc(C(F)(F)F)c1", "Potency": "inconclusive [inhibitor, partial curve, poor fit]"},
      {"smiles": "Cc1cccc(C)c1-n1c(C)cc(/C=N\\Nc2ccc([N+](=O)[O-])cn2)c1C", "Potency": "inconclusive [inhibitor, partial curve, poor fit]"},
      {"smiles": "O=C(C(c1ccccc1)c1ccccc1)N1CCN(c2ccccn2)CC1", "Potency": "inconclusive [inhibitor, single point]"},
      {"smiles": "O=C(c1ccc(N2CCCCC2)c([N+](=O)[O-])c1)N1CCN(c2ccccn2)CC1", "Potency": "inconclusive [inhibitor, single point]"},
      {"smiles": "C/C(=N\\NC(=O)c1cc(C)nc2ccccc12)c1ccncc1", "activity change, negative = inhibition": "inactive: -17.2%"},
      {"smiles": "O=C(c1ccccc1)c1ccc(OC(=O)N2CCCC2)cc1", "Potency": "inconclusive [inhibitor, partial curve, poor fit]"},
      {"smiles": "CCN(Cc1ccccc1)C(=O)Cn1c(=O)cc(C)c2c(C)nn(-c3cccc(F)c3)c21", "activity change, negative = inhibition": "inactive: 4.21%"},
      {"smiles": "CC1(Cc2cccc(F)c2)C(=O)Nc2ccc(-c3cccnc3)cc21", "note": "(stereo not drawn)", "Potency": "inconclusive [inhibitor, partial curve, poor fit]"},
      {"smiles": "O=[N+]([O-])/C(C(=C(Cl)Cl)N1CCN(Cc2ccccc2)CC1)=C1\\NCCN1Cc1ccc(Cl)nc1", "Potency": "inconclusive [inhibitor, single point]"},
      {"smiles": "Cc1oc(-c2ccc(Cl)cc2)nc1CS(=O)CC(=O)NCc1ccccc1", "note": "(stereo not drawn)", "Potency": "inconclusive [inhibitor, single point]"},
      {"smiles": "O=C(CSc1oc(-c2ccc(F)cc2)nc1S(=O)(=O)c1ccccc1)c1ccc(Cl)cc1", "Potency": "inconclusive [inhibitor, single point]"},
      {"smiles": "COc1ccccc1/C=N/Nc1nncc2ccccc12", "activity change, negative = inhibition": "inactive: 24.9%"},
      {"smiles": "Cc1ccc(NC(=O)C(c2ccccc2)N2CCN(CC(=O)NC3CC3)CC2)cc1Cl", "note": "(stereo not drawn)", "Potency": "inconclusive [inhibitor, single point]"},
      {"smiles": "COc1ccccc1OCC(=O)Nc1cc(Cl)ccc1N1CCCCC1", "Potency": "inconclusive [inhibitor, single point]"},
      {"smiles": "Cc1ccccc1CN1CCN(S(=O)(=O)c2cccs2)CC1", "Potency": "inconclusive [inhibitor, single point]"},
      {"smiles": "COc1ccc(C)cc1S(=O)(=O)N(CC(=O)Nc1cccc([N+](=O)[O-])c1)c1ccccc1", "Potency": "inconclusive [inhibitor, single point]"},
      {"smiles": "Cc1cc(Cl)ccc1NNC(=O)c1c(C)noc1C", "Potency": "active: 1.41 µM"},
      {"smiles": "Cc1cc(OC(C)C(=O)N(Cc2ccco2)Cc2ccco2)cc(C)c1Cl", "note": "(stereo not drawn)", "Potency": "active: 10 µM"},
      {"smiles": "NC(=O)C1=C[C@H](c2csc3ccccc23)C[C@H](OCCCCO)O1", "activity change, negative = inhibition": "inactive: -0.92%"},
      {"smiles": "COc1ccc(N=C2SC(CC(=O)Nc3ccccc3)C(=O)N2CC2CCCO2)cc1", "note": "(stereo not drawn)", "Potency": "inconclusive [inhibitor, partial curve, poor fit]"},
      {"smiles": "CCCCCCn1c(=O)n2n(c1=O)C[C@]1(OC(=O)NC3CC3)CN(S(=O)(=O)c3ccc(C)cc3)C[C@]1(O)C2", "Potency": "inconclusive [inhibitor, single point]"},
      {"smiles": "CCOc1ccc(N(CC(=O)N/N=C/c2ccccn2)S(=O)(=O)c2ccc(Cl)cc2)cc1", "Potency": "inconclusive [inhibitor, single point]"},
      {"smiles": "CC(C)N1CCCC(C)(C(=O)Nc2cccc(Oc3ccccc3)c2)C1", "note": "(stereo not drawn)", "Potency": "inconclusive [inhibitor, single point]"},
      {"smiles": "Cc1c(Cc2ccccc2)c(=O)oc2c(O)c(O)ccc12", "Potency": "inconclusive [inhibitor, single point]"},
      {"smiles": "CCOC(=O)C(=Cc1ccc(Br)cc1)C(=O)OCC", "Potency": "inconclusive [inhibitor, partial curve, poor fit]"},
      {"smiles": "Cc1ccc(OCC(=O)Nc2ccccc2Sc2ccc(Cl)cc2)c([N+](=O)[O-])n1", "Potency": "inconclusive [inhibitor, single point]"},
      {"smiles": "Cc1cc(NC(=O)CCN2CCC(C(N)=O)CC2)ccc1Br", "activity change, negative = inhibition": "inactive: -4.05%"},
      {"smiles": "CC(=O)N1CCN(c2ccc(NC(=O)c3cccc(C)c3)cc2)CC1", "activity change, negative = inhibition": "inactive: 17.4%"},
      {"smiles": "Cc1oc2c(cc(NS(=O)(=O)c3cccs3)c3ccccc32)c1C(=O)OC(C)C", "Potency": "inconclusive [inhibitor, partial curve, poor fit]"},
      {"smiles": "COc1ccc(C(C)C)cc1S(=O)(=O)NCCc1c(C)[nH]c2c(Cl)cccc12", "Potency": "inconclusive [inhibitor, partial curve, poor fit]"},
      {"smiles": "O=C1C(Nc2cccc(O)c2)=C(N2CCCCC2)C(=O)c2ccccc21", "Potency": "inconclusive [inhibitor, single point]"},
      {"smiles": "Clc1ccc(-c2nc3ccc(Br)cn3c2Cc2ccsc2)cc1", "Potency": "inconclusive [inhibitor, single point]"},
      {"smiles": "C[C@H](NC(=O)OC(C)(C)C)c1nnc(SCc2ccc(Cl)cc2Cl)o1", "Potency": "inconclusive [inhibitor, single point]"}
    ]}
  ]
}
